“And” between values parts separate entries of the source, which are not always exact repeats. Identical values can stand only once. In all, about 420,000 compounds went through this assay and about 64,000 (15%) were called active. Inconclusive results, whose numbers are uncertain, are shown with a selection of clear calls. The call rests on the fitted dose curve; in most records, active means well fitted inhibition curve with a large enough effect; inconclusive means small, poorly fitted or top-dose-only effect; inactive means flat fitted curve, though single readings scatter. A potency beside an inconclusive call is a rough fit, not a confirmed value.
Assay: qHTS for Inhibitors of human tyrosyl-DNA phosphodiesterase 1 (TDP1): qHTS in cells in absence of CPT; further: nearly all actives have a fitted effect of over 55% in size
Settings: DT40 Tdp1-/- hTDP1 cells, no CPT, ATP luminescence, 48 h; activity change, negative = growth inhibition: at 46.2 µM (top of the series) unless noted
Summary of the method: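 Chicken DT40 Tdp1-/- cells stably complemented with human TDP1 were seeded at 400 cells/well with DMSO in place of 20 nM camptothecin. After compound pinning, cells grew at least 48 hr at 37 °C; viability read by CellTiter-Glo luminescence.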
On the % scale 0 is the no-effect control and ±100 the full control effect; potency means the concentration at half of the fitted maximal effect; tags describe the fitted curve by direction and shape.

Structure (SMILES)	Potency	activity change, negative = growth inhibition
CCC(=O)N1c2ccc(C)cc2C2=NNC(=S)NC21O (stereo unspecified)	inconclusive: 23.1 µM [inhibitor, single point]	–
COc1ccc(N(CC(=O)NCCSc2ccccc2)S(C)(=O)=O)cc1	–	inactive: -7.96%
COc1ccc(CN2CCC(c3nc4ccc(Cl)cc4[nH]3)CC2)cc1	active: 20.6 µM	–
Cc1ccc(S(=O)(=O)N2CCN(c3nc(-c4ncccn4)nc4ccccc34)CC2)cc1	active: 11.2 µM	–
O=S(=O)(c1ccc2c(c1)nc(COc1ccc(Cl)cc1)n2CC1CCCO1)N1CCOCC1 (stereo unspecified)	inconclusive: 29.1 µM [inhibitor, single point]	–
NNc1nc2sc3c(c2c(=O)n1-c1ccccc1)CCCC3	inconclusive: 18.4 µM [inhibitor, single point]	–
O=C(CCCC(=O)N(CC(=O)NC1CCCC1)c1ccc(F)c(Cl)c1)Nc1ccccn1	–	inactive: 1.86%
Cc1ccsc1CN(C)C(=O)CN1C(=O)NC2(CCCCC2C)C1=O (stereo unspecified)	–	inactive: 5.62%
CCn1c(CNC(=O)COc2c(C)cccc2C)nnc1SCC(=O)Nc1nccs1	–	inconclusive: -31.6% [inhibitor]
O=C(NC1CCCC1)C(C1CC1)n1c(-c2ccncc2)nc2ccccc21 (stereo unspecified)	–	inactive: 1.97%
CCCCCC1C(=O)CCC1CC(=O)O (stereo unspecified)	–	inactive: -7.32%
CCC(C)NC(=O)c1sc2nc3n(c(=O)c2c1C)CCC3 (stereo unspecified)	–	inactive: -8.09%
Cn1c(Nc2ccc(F)cc2)nc2cc(-c3ccsc3)sc2c1=O	inconclusive: 29.1 µM [inhibitor, single point]	–
CC(=O)N1N=C(c2ccccc2)CC1c1ccccc1 (stereo unspecified)	inconclusive: 25.9 µM [inhibitor, single point]	–
Cc1cccc(C(=O)NNc2ncnc3c2cnn3C)c1	–	inactive: -0.728%
CN1CCN(C(CNC(=O)c2c(F)cccc2F)c2ccc3c(c2)OCO3)CC1 (stereo unspecified)	–	inactive: -9.9%
O=C(NN1C(=O)c2ccccc2C1=O)c1ccccc1[N+](=O)[O-]	–	inactive: 1.65%
CCN(C(=O)Cn1ncc2c(=O)oc3ccccc3c21)c1ccccc1F	inconclusive: 29.1 µM [inhibitor, single point]	–
Cc1cccc(NS(=O)(=O)c2cc(C(=O)OC(C)C(=O)NCc3ccc4c(c3)OCO4)ccc2C)c1 (stereo unspecified)	active: 16.4 µM	–
CCOc1ccc(-c2nc(C#N)c(N3CCN(CC)CC3)o2)cc1	inconclusive: 18.4 µM [inhibitor, partial curve, poor fit]	–
CCCCCCn1ccc(=N)cc1	active: 0.206 µM	–
CC(C)NC(=O)c1sc(=S)n2c1[nH]c(=O)c1ccc(C(=O)NCCc3ccc(Cl)cc3)cc12	inconclusive: 16.4 µM [inhibitor, single point]	–
COc1cccc(-c2nn(-c3ccc(C)cc3)cc2C(=O)N2CCc3cc(OC)c(OC)cc3C2)c1	inconclusive: 29.1 µM [inhibitor, single point]	–

Structure (SMILES)	Potency	activity change, negative = growth inhibition
CCc1ccc(-c2nc(CS(=O)CC(=O)NCCCN3CCOCC3)c(C)o2)cc1 (stereo unspecified)	–	inactive: 6.95%
COc1cccc2c1cc1c(=O)n(CC(=O)N3CCC(C)CC3)nc(C)n12	inconclusive: 29.1 µM [inhibitor, single point] and inconclusive: 7.31 µM [inhibitor, partial curve, poor fit]	–
O=C(NCC(=O)N1CCCCC1)c1ccc2ccccc2c1	–	inactive: 0.105%
O=C1CCC/C1=C\Nc1ccc(Cl)c([N+](=O)[O-])c1	inconclusive: 14.6 µM [inhibitor, partial curve]	–
COc1ccccc1OCCOc1ccccc1/C=N/n1cnnc1	inconclusive: 29.1 µM [inhibitor, single point]	–
COc1cc(OC)c(C(=O)N(CCc2ccccc2)Cc2ccccc2)cc1OC	inconclusive: 29.1 µM [inhibitor, single point]	–
Cc1ccc([N+](=O)[O-])cc1NC(=O)CN1CCCCC1	–	inactive: 3.55%
CCOc1cc(C)c(S(=O)(=O)NCc2ccccn2)cc1C	inconclusive: 18.4 µM [inhibitor, single point]	–
Cc1ccc2cc(C(c3nnnn3Cc3ccccc3)N3CCc4ccccc43)c(=O)[nH]c2c1 (stereo unspecified)	inconclusive: 29.1 µM [inhibitor, single point]	–
Cc1nc(-c2nc(-c3c(C(=O)NNC(=O)Nc4ccccc4)noc3C)cs2)cs1	inconclusive: 29.1 µM [inhibitor, single point]	–
CCOc1ccc2[nH]c(=O)c(CN(Cc3nnnn3CCc3ccccc3)CC3CCCO3)cc2c1 (stereo unspecified)	active: 14.6 µM	–
O=C(COS(=O)c1ccccc1)Nc1cc(Cl)ccc1N1CCOCC1 (stereo unspecified)	inconclusive: 18.4 µM [inhibitor, single point]	–
COc1ccccc1NC(=O)C(C)N1C(=O)C2CCCCC2C1=O (stereo unspecified)	–	inactive: 22.8%
CS(=O)(=O)c1ccc(Cl)c(NC(=O)Nc2ccccc2)c1	inconclusive: 29.1 µM [inhibitor, single point]	–
CC(=O)c1ccc(-c2cc(F)cc3c2OC(CNC(=O)C(C)N2CCOCC2)C3)s1 (stereo unspecified)	inconclusive: 18.4 µM [inhibitor, single point]	–
COc1cc(C(=O)NC(=S)Nc2ccc(Cl)cn2)cc(OC)c1OC	inconclusive: 32.6 µM [inhibitor, partial curve, poor fit]	–
CCN(Cc1ccc(OC)c(COC)c1)CC1CCCN(CCc2cccc(F)c2)C1 (stereo unspecified)	inconclusive: 29.1 µM [inhibitor, single point]	–
Cc1ccc(NC(=O)C(NC2CCCc3ccccc32)c2ccccc2)cc1Cl (stereo unspecified)	active: 18.4 µM	–
Cc1ccc(-n2nc3c(=O)n(C(C)C(=O)NCc4ccc5c(c4)OCO5)nc(C)c3c2C)cc1 (stereo unspecified)	inconclusive: 23.1 µM [inhibitor, partial curve, poor fit]	–
CCOc1ccc(-c2nc(C#N)c(N3CCCCCC3)o2)cc1	inconclusive: 29.1 µM [inhibitor, single point]	–
CCCCC(=O)Nc1nc2c(OC)ccc(OC)c2s1	–	inactive: -3.95%
NC(=O)CC(NC(=O)Cc1ccc(Cl)cc1)c1ccc(N2CCC(Cc3ccccc3)CC2)c([N+](=O)[O-])c1 (stereo unspecified)	inconclusive: 29.1 µM [inhibitor, single point]	–
CC1=CC(=O)C=CC1=Nc1ccc(N(C)C)cc1	active: 0.92 µM	–

— PubChem BioAssay AID686978 (National Center for Advancing Translational Sciences (NCATS), 2013)
